The other results are listed elsewhere or left out.

The test has as its target T1, MBP-FoxP1dN (Mus musculus, UniProt P58462 326-579).
T1 sequence: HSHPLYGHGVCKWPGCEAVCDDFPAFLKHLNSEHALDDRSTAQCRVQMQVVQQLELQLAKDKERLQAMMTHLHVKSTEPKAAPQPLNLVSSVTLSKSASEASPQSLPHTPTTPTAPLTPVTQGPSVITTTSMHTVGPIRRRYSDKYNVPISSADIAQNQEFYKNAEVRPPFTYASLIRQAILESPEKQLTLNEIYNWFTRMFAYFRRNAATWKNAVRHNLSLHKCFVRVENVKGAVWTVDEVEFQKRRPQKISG
The experiment in a line: PD-seq (MBP pull-down with sequencing); 20 mM Tris-HCl pH 7.5, 100 mM NaCl, 1.5 mM MgCl2, 0.4 uM protein, 0.1 uM dsDNA library, 30 min, room temperature, amylose pull-down; high values mean tight binding. The settings on record: protein: recombinant; tags: His6-MBP; chain copies: 2; dsDNA, one strand shown. In a few lines:
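Amylose resin was used to capture complexes formed during 30 min at room temperature in Tris pH 7.5 buffer with NaCl and MgCl2 between 0.4 µM His6-MBP-tagged mouse FoxP3 or FoxP1 fragment lacking the N-terminus, expressed in E. coli, and 0.1 µM Klenow-filled double-stranded degenerate DNA library. After three washes, the DNA was released with proteinase K, barcoded by PCR and sequenced on Illumina. Binding is pooled-replicate reads-per-million enrichment, pull-down over input.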
As to “GATGATTGTTCTCCCAGCTGATGAATTGTCCTTATCGAGTAAACAAATTTTCCTAATCTTTCTGTTCAAGCGCCATCTAC”, the binding signal was 1.13 RPM ratio (pull-down/input).
To “GATGATTGTTCTCCCAGCTGATGAATTTAACAGATCGAGTAAACAAATTTTCCTAATCTTTCTGTTCAAGCGCCATCTAC” belongs 0.842 RPM ratio (pull-down/input); to “GATGATTGTTCTCCCAGCTGATGAATTTTGGGCTTCGAGTAAACAAATTTTCCTAATCTTTCTGTTCAAGCGCCATCTAC”, 0.804 RPM ratio (pull-down/input); to “GATGATTGTTCTCCCAGCTGATGAATTGTGCACTTCGAGTAAACAAATTTTCCTAATCTTTCTGTTCAAGCGCCATCTAC”, 1.15 RPM ratio (pull-down/input).
To “GATGATTGTTCTCCCAGCTGATGAATTCCCTTAATCGAGTAAACAAATTTTCCTAATCTTTCTGTTCAAGCGCCATCTAC” belongs 0.924 RPM ratio (pull-down/input).
For the sequence “GATGATTGTTCTCCCAGCTGATGAATTCTATGCTTCGAGTAAACAAATTTTCCTAATCTTTCTGTTCAAGCGCCATCTAC”, the binding signal is 1.04 RPM ratio (pull-down/input).
“GATGATTGTTCTCCCAGCTGATGAATTTTCCATGTCGAGTAAACAAATTTTCCTAATCTTTCTGTTCAAGCGCCATCTAC”: the binding signal is 0.844 RPM ratio (pull-down/input).
Under “GATGATTGTTCTCCCAGCTGATGAATTCGTTGGATCGAGTAAACAAATTTTCCTAATCTTTCTGTTCAAGCGCCATCTAC” stands 0.888 RPM ratio (pull-down/input); under “GATGATTGTTCTCCCAGCTGATGAATTACCAGAGTCGAGTAAACAAATTTTCCTAATCTTTCTGTTCAAGCGCCATCTAC”, 0.959 RPM ratio (pull-down/input); under “GATGATTGTTCTCCCAGCTGATGAATTGAGCGGCTCGAGTAAACAAATTTTCCTAATCTTTCTGTTCAAGCGCCATCTAC”, 0.726 RPM ratio (pull-down/input).
Under “GATGATTGTTCTCCCAGCTGATGAATTCGTATGCTCGAGTAAACAAATTTTCCTAATCTTTCTGTTCAAGCGCCATCTAC” stands 0.899 RPM ratio (pull-down/input); under “GATGATTGTTCTCCCAGCTGATGAATTCGAAACGTCGAGTAAACAAATTTTCCTAATCTTTCTGTTCAAGCGCCATCTAC”, 0.878 RPM ratio (pull-down/input); under “GATGATTGTTCTCCCAGCTGATGAATTCTCGAGTTCGAGTAAACAAATTTTCCTAATCTTTCTGTTCAAGCGCCATCTAC”, 0.782 RPM ratio (pull-down/input).
With “GATGATTGTTCTCCCAGCTGATGAATTGATTACTTCGAGTAAACAAATTTTCCTAATCTTTCTGTTCAAGCGCCATCTAC”, the binding signal was 1.48 RPM ratio (pull-down/input).
Take “GATGATTGTTCTCCCAGCTGATGAATTCTAGTCGTCGAGTAAACAAATTTTCCTAATCTTTCTGTTCAAGCGCCATCTAC”: the binding signal is 0.894 RPM ratio (pull-down/input).
Under “GATGATTGTTCTCCCAGCTGATGAATTTCAGTCCTCGAGTAAACAAATTTTCCTAATCTTTCTGTTCAAGCGCCATCTAC” stands 0.712 RPM ratio (pull-down/input); under “GATGATTGTTCTCCCAGCTGATGAATTTAATTCATCGAGTAAACAAATTTTCCTAATCTTTCTGTTCAAGCGCCATCTAC”, 0.965 RPM ratio (pull-down/input); under “GATGATTGTTCTCCCAGCTGATGAATTGACTCGCTCGAGTAAACAAATTTTCCTAATCTTTCTGTTCAAGCGCCATCTAC”, 0.934 RPM ratio (pull-down/input).
To “GATGATTGTTCTCCCAGCTGATGAATTAGCTCAATCGAGTAAACAAATTTTCCTAATCTTTCTGTTCAAGCGCCATCTAC” belongs 0.99 RPM ratio (pull-down/input); to “GATGATTGTTCTCCCAGCTGATGAATTCTATAGATCGAGTAAACAAATTTTCCTAATCTTTCTGTTCAAGCGCCATCTAC”, 0.873 RPM ratio (pull-down/input); to “GATGATTGTTCTCCCAGCTGATGAATTCGAAGTTTCGAGTAAACAAATTTTCCTAATCTTTCTGTTCAAGCGCCATCTAC”, 0.876 RPM ratio (pull-down/input).
To “GATGATTGTTCTCCCAGCTGATGAATTCAGAAGTTCGAGTAAACAAATTTTCCTAATCTTTCTGTTCAAGCGCCATCTAC” belongs 0.836 RPM ratio (pull-down/input); to “GATGATTGTTCTCCCAGCTGATGAATTCTACATATCGAGTAAACAAATTTTCCTAATCTTTCTGTTCAAGCGCCATCTAC”, 1.02 RPM ratio (pull-down/input); to “GATGATTGTTCTCCCAGCTGATGAATTTCTATAATCGAGTAAACAAATTTTCCTAATCTTTCTGTTCAAGCGCCATCTAC”, 1.1 RPM ratio (pull-down/input).
On to “GATGATTGTTCTCCCAGCTGATGAATTAATCATCTCGAGTAAACAAATTTTCCTAATCTTTCTGTTCAAGCGCCATCTAC”, for which the binding signal is 0.993 RPM ratio (pull-down/input).
On to “GATGATTGTTCTCCCAGCTGATGAATTTAGCATGTCGAGTAAACAAATTTTCCTAATCTTTCTGTTCAAGCGCCATCTAC”, for which the binding signal was 0.99 RPM ratio (pull-down/input).
Under “GATGATTGTTCTCCCAGCTGATGAATTCTAGGTATCGAGTAAACAAATTTTCCTAATCTTTCTGTTCAAGCGCCATCTAC” stands 0.911 RPM ratio (pull-down/input); under “GATGATTGTTCTCCCAGCTGATGAATTCGGGTTGTCGAGTAAACAAATTTTCCTAATCTTTCTGTTCAAGCGCCATCTAC”, 0.917 RPM ratio (pull-down/input).
For the sequence “GATGATTGTTCTCCCAGCTGATGAATTCAGAAAGTCGAGTAAACAAATTTTCCTAATCTTTCTGTTCAAGCGCCATCTAC”, the binding signal was 0.853 RPM ratio (pull-down/input).
As for “GATGATTGTTCTCCCAGCTGATGAATTCACAGGCTCGAGTAAACAAATTTTCCTAATCTTTCTGTTCAAGCGCCATCTAC”, the binding signal was 0.804 RPM ratio (pull-down/input).
Take “GATGATTGTTCTCCCAGCTGATGAATTGCCTGTTTCGAGTAAACAAATTTTCCTAATCTTTCTGTTCAAGCGCCATCTAC”: the binding signal was 1.04 RPM ratio (pull-down/input).
To “GATGATTGTTCTCCCAGCTGATGAATTTATTCCCTCGAGTAAACAAATTTTCCTAATCTTTCTGTTCAAGCGCCATCTAC” belongs 1.02 RPM ratio (pull-down/input).
To “GATGATTGTTCTCCCAGCTGATGAATTACGCATATCGAGTAAACAAATTTTCCTAATCTTTCTGTTCAAGCGCCATCTAC” belongs 1.21 RPM ratio (pull-down/input); to “GATGATTGTTCTCCCAGCTGATGAATTGCTGATCTCGAGTAAACAAATTTTCCTAATCTTTCTGTTCAAGCGCCATCTAC”, 1.03 RPM ratio (pull-down/input); to “GATGATTGTTCTCCCAGCTGATGAATTCAACCCATCGAGTAAACAAATTTTCCTAATCTTTCTGTTCAAGCGCCATCTAC”, 0.915 RPM ratio (pull-down/input).
To “GATGATTGTTCTCCCAGCTGATGAATTTTCATACTCGAGTAAACAAATTTTCCTAATCTTTCTGTTCAAGCGCCATCTAC” belongs 0.974 RPM ratio (pull-down/input); to “GATGATTGTTCTCCCAGCTGATGAATTTCTCTTGTCGAGTAAACAAATTTTCCTAATCTTTCTGTTCAAGCGCCATCTAC”, 0.879 RPM ratio (pull-down/input); to “GATGATTGTTCTCCCAGCTGATGAATTCGCCTCATCGAGTAAACAAATTTTCCTAATCTTTCTGTTCAAGCGCCATCTAC”, 0.874 RPM ratio (pull-down/input).
For the sequence “GATGATTGTTCTCCCAGCTGATGAATTCGGTACCTCGAGTAAACAAATTTTCCTAATCTTTCTGTTCAAGCGCCATCTAC”, the binding signal is 0.82 RPM ratio (pull-down/input).
Under “GATGATTGTTCTCCCAGCTGATGAATTACCTAGCTCGAGTAAACAAATTTTCCTAATCTTTCTGTTCAAGCGCCATCTAC” stands 0.978 RPM ratio (pull-down/input).
